Measurements as given in PubChem BioAssay AID1508623 (National Center for Advancing Translational Sciences (NCATS), 2021).
Among all 48,000 compounds or so, about 450 (0.94%) were called active. Not shown: some 19% with an inconclusive outcome. Calls come from the whole dose curve; as a rule, active = well fitted inhibition curve with a large enough effect; inconclusive = small, poorly fitted or top-dose-only effect; inactive = no such curve, though single readings can be large or run the other way. This is one part of the list.

test: Primary qHTS for Identification of Small Molecule Inhibitors of Huntingtin Promoter Activity; settings: HEK293 HTT promoter firefly luciferase reporter (activity 0% = vehicle and -100% = no light), 24 h; series mostly up to 57.5 µM; activity change, negative = inhibition: at the top concentration; note: nearly all actives have a fitted effect of over 50% in size
Outline: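 Firefly luciferase readout (Dual-Glo, 10 min RT) after 24 h, 37 °C compound exposure (final up to 57.5 uM) of HEK293 reporter cells cultured 24 h beforehand; PTC124 at 50 uM final as control inhibitor; activity scaled vehicle 0%, zero RLU -100%.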

Activity change, negative = inhibition, inactive:
COC(=O)c1cccc(Nc2c(-c3ccc(OC)cc3)nc3nc[nH]n23)c1 25.6%, Cc1ccc(C)c(NC(=O)Cn2nnc(C(=O)NCCc3ccccc3)c2N)c1 -19.8%, CCOC(=O)c1ccc(NC(=O)C(CC)Sc2nnc3c4ccccc4n(C)c3n2)cc1 (configuration not stated) -3.81%, Cc1cc(C)c(NC(=O)Cn2c(=O)n(Cc3ccc4c(c3)OCO4)c(=O)c3ccccc32)c(C)c1 -4.79%, CCOc1ccccc1CNC(=O)c1cn(-c2ccc(OC)cc2)c(=O)c2ccccc12 -17.4%, CCOc1ccc(NC(C)=O)cc1 -5.39%, COc1cccc(CNC(=O)CSc2n[nH]c(-c3ccccc3Cl)n2)c1OC -15%, Cc1cccc(NC(=O)CSc2nc(=O)n(Cc3ccco3)c3c2CCC3)c1C -12%, CN1CCC[C@@H]1CCO[C@](C)(c1ccccc1)c1ccc(Cl)cc1 -6.45%, O=c1c(N2CCN(c3cccc(Cl)c3)CC2)csc2ccccc12 -23.9%, Cc1cc(C)cc(NC(=O)C(=O)NCCCN2CCOCC2)c1 -1.66%, Cc1ccc2cc3cc(C(=O)N4CCN(c5ccccc5)CC4)oc3nc2c1 -9.19%, CCOc1ccc(CN(C(=O)c2nc(SC)ncc2Cl)C2CCS(=O)(=O)C2)cc1 (configuration not stated) -4.63%, O=C(Nc1nc2ccc(S(=O)(=O)N3CCCC3)cc2s1)c1ccc(F)cc1 -29.3%, CC1CCCCN1CCCNC(=O)c1ccc2c(c1)sc1nc(-c3ccc(F)cc3)cn12 (configuration not stated) 1.41%, CCOC(=O)c1noc2ncnc(N3CCN(c4cccc(Cl)c4)CC3)c12 -26.5%, COc1ccc(-c2nc3nc(C)cc(N4CCN(c5cccc(C(F)(F)F)c5)CC4)n3n2)cc1 -8.35%, Cc1cc(C)cc(NC(=O)Cn2nnc(C(=O)NCc3ccccc3Cl)c2N)c1 -28%, COc1ccc(CCNC(=O)c2cc3c(s2)-c2c(C)cccc2OC3)c(OC)c1 -26.8%, CCOc1ccc(C(=O)Nc2ccccc2C(=O)OCc2cc(=O)n3nc(C4CC4)sc3n2)cc1 7.35%, Cc1cccc2c1-c1sc(C(=O)NCc3ccc(Cl)cc3)cc1CO2 2.24%, Cc1ccc(-c2nc(S(=O)(=O)c3ccc(C)cc3)c(SCC(=O)Nc3ccc(F)cc3)o2)cc1 -17.7%, CCN(Cc1ccccc1)C(=O)c1cc2c(=O)oc3ccc(C)cc3c2s1 -7.66%, CCc1ccc(S(=O)(=O)c2nnn3c2nc(Nc2cc(OC)cc(OC)c2)c2cc(Cl)ccc23)cc1 1.15%, COCCn1c(C)cc(O)c(C(c2ccc(Cl)cc2)N2CCN(c3ccccc3)CC2)c1=O (configuration not stated) -5.03%, CN1C(C(=O)c2ccccc2)=C(NC(=O)c2ccccc2Br)c2ccccc2S1(=O)=O 1.51%, COc1ccc(NC(=O)Nc2cccc(OCc3cc(=O)n4cccc(C)c4n3)c2)c(OC)c1 -6.91%, CCCCCSc1nnc2c(n1)OC(CC)Nc1ccc(Br)cc1-2 (configuration not stated) -17%, Cc1nc2ccc(S(=O)(=O)NC(C(=O)N3CCN(c4ccc(Cl)cc4)CC3)C(C)C)cc2s1 (configuration not stated) -22.7%, CCc1ccc(NC(=O)Cc2csc(COc3cccc(C)c3)n2)cc1 -24.5%, O=c1n(Cc2ccc(Cl)cc2)c2ccccc2c2nc(-c3ccccc3)nn12 -12.1%, O=S(=O)(c1ccc2[nH]c3c(c2c1)CCCC3)N1CCN(c2cccc(C(F)(F)F)c2)CC1 -12.6%, Cc1cc(C)cc(Nc2nc3ccccc3n3cnnc23)c1 -6.64%, COc1cc(C2N=C(N)Nc3nc4ccccc4n32)ccc1OCC(=O)O (configuration not stated) 12.8%, COc1ccc(C(=O)NCC(c2ccc(N(C)C)cc2)N2CCCC2)cc1 (configuration not stated) -13.3%, CC(=O)c1ccc(N2CCN(c3nc4c(S(=O)(=O)c5ccc(C)c(C)c5)nnn4c4ccc(Cl)cc34)CC2)cc1 -16%, Cc1cc(C)cc(-n2ccnc2SCC(=O)Nc2ccc(C)cc2C)c1 -9.33%, CCC(=O)N1CCc2cc(Br)cc(S(=O)(=O)CCC(=O)N3CCN(c4ccc(OC)cc4)CC3)c21 -5.91%, O=C(CCCn1c(=O)c2ccccc2n(CC(=O)Nc2cccc(Cl)c2)c1=O)NCc1ccc2c(c1)OCO2 -10.1%, CCOc1ccc2oc(=O)cc(CN3CCN(Cc4ccc(F)cc4)CC3)c2c1 -17.5%, CCC(C(=O)Nc1cc(OC)ccc1OC)n1c(=O)c(C(F)(F)F)nc2ccccc21 (configuration not stated) -8.28%, CCC(=O)Nc1ccccc1-c1nc2ccccc2n(C(C)C(=O)Nc2cccc(Cl)c2C)c1=O (configuration not stated) -20.3%, CC(C)c1ccc(Nc2ncnc3c2nc2n3CCCC2)cc1 -18.6%, COc1cc(NC(=O)CNC(=O)Cn2ccc3ccccc3c2=O)cc(OC)c1OC -1.47%, Cc1ccc(Cc2cnc(NC(=O)C3Cc4ccc(C)cc4C(=O)O3)s2)cc1 (configuration not stated) 3.1%, COc1ccc(/C=C/C(=O)c2ccc(OC)cc2OC)cc1 -0.467%, COc1ccc(C(CNC(=O)c2cccc([N+](=O)[O-])c2)N2CCOCC2)cc1 (configuration not stated) -2.49%, CC(C(=O)O)c1ccc(C(=O)c2cccs2)cc1 (configuration not stated) 13%, CCOc1ccc(S(=O)(=O)c2cn(C)c3ccccc3c2=O)cc1 -23.5%, CC(NC(=O)c1c2c(nc3ccccc13)C(=O)N(C1CCCCC1)C2)c1ccccc1 (configuration not stated) -12.3%, Cc1ccc(CNC(=O)Cn2c(=O)ccc3cc(S(=O)(=O)N4CCCC4)ccc32)cc1 6.14%, CCN(C(=O)c1cccn(Cc2ccccc2C)c1=O)c1ccccc1 -16.8%, CN(C)c1ccc(NC(=O)CN2C(=O)c3ccccc3Sc3ccc(C(=O)N4CCCC4)cc32)cc1 -23.1%, CCOC(=O)C1CCN(C(=O)Cn2ncc3c4ccccc4n(Cc4ccccc4F)c3c2=O)CC1 -21.7%, Cc1ccc(NC(=O)CN2C(=O)CCn3nc(-c4cccn4C)cc32)c(Cl)c1 -20.2%, Cc1nn(CCCC(=O)NCc2cccc(Cl)c2)c(=O)c2c1sc1ccccc12 0.718%, Cc1nnc(NC(=O)CSc2nnc3c(n2)[nH]c2ccccc23)s1 -6.79%, Cc1cccc(N2CCN(CCCNC(=O)c3sc4ncccc4c3-n3cccc3)CC2C)c1 (configuration not stated) 0%, O=c1n(Cc2ccc(F)cc2)nc2n1-c1cc(Cl)ccc1OC2 -8.85%, COc1ccc(NC(=O)C2CCN(c3nc4ccccc4nc3C(F)(F)F)CC2)cc1 -1.52%, COc1ccc(-c2cn3nc(N4CCC(C(=O)Nc5ccc(Cl)cc5C)CC4)sc3n2)cc1 -7.94%, COc1ccc(-n2nc(C(=O)NCCc3ccc(OC)c(OC)c3)c3c4ccccc4n(C)c3c2=O)cc1Cl -4.76%
